± gives the standard deviation of the averaged measurements. Restriction of a single-cycle SIVsab GFP reporter by TRIM5α v1-loop variants in CRFK cells. Human variants: read share among cells still uninfected after two challenges over input, higher = gained restriction. Rhesus variants: share among infected cells over input, higher = lost restriction. Reporter dose not given per row. No active / inactive call per row; the paper calls a change when both replicates lie above its controls (mean + 2 SD of stop or wild-type variants, or the top frameshift score). Residues outside the varied loop are taken from Swiss-Prot. The paper reads the human single-substitution scores as noise; they and the rhesus combinations repeat poorly (rank correlation 0.3 to 0.4), indel scores repeat only for the top variants, rhesus substitutions well (0.9).

The test system of the data set is SIVsab (simian immunodeficiency virus of sabaeus monkeys), single-cycle GFP reporter, in CRFK cells. Put plainly: enrichment among infected cells over input (fold); higher = weaker restriction. The conditions noted are these: library: human / rhesus combinations. The procedure: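 Pools of CRFK cells expressing variants of the TRIM5α v1 loop were challenged with the single-cycle reporter, sorted by GFP and sequenced; mean of two replicates.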
With “MASGILLNVKEEVTCPICLELLTEPLSLHCGHSFCQACITANHKKSMLYKEGERSCPVCRISYQPENIQPNRHVANIVEKLREVKLSPEEGQKVDHCARHGEKLLLFCQEDSKVICWLCERSQEHRGHHTFLMEEVAQEYHVKLQTALEMLRQKQQEAEKLEADIREEKASWKIQIDYDKTNVSADFEQLREILDWEESNELQNLEKEEEDILKSLTKSETEMVQQTQYMRELISELEHRLQGSMMDLLQGVDGIIKRIENMTLKKPKTFHKNQRRVFRAPDLKGMLDMFRELTDARRYWVDVTLAPNNISHAVIAEDKRQVSSRNPQIMYQARGTLYQSLVNFNYCTGVLGSQSITSGKHYWEVDVSKKSAWILGVCAGFQSDAMYNIEQNENYQPKYGYWVIGLQEGVKYSVFQDGSSHTPFAPFIVPLSVIICPDRVGVFVDYEACTVSFFNITNHGFLIYKFSQCSFSKPVFPYLNPRKCTVPMTLCSPSS [rhesus TRIM5α, 332-344 = QARGTLYQSLV]”, the enrichment was found to be 0.859 ± 0.28. With “MASGILLNVKEEVTCPICLELLTEPLSLHCGHSFCQACITANHKKSMLYKEGERSCPVCRISYQPENIQPNRHVANIVEKLREVKLSPEEGQKVDHCARHGEKLLLFCQEDSKVICWLCERSQEHRGHHTFLMEEVAQEYHVKLQTALEMLRQKQQEAEKLEADIREEKASWKIQIDYDKTNVSADFEQLREILDWEESNELQNLEKEEEDILKSLTKSETEMVQQTQYMRELISELEHRLQGSMMDLLQGVDGIIKRIENMTLKKPKTFHKNQRRVFRAPDLKGMLDMFRELTDARRYWVDVTLAPNNISHAVIAEDKRQVSSRNPQIMYQARGTLYTFPSFTNFNYCTGVLGSQSITSGKHYWEVDVSKKSAWILGVCAGFQSDAMYNIEQNENYQPKYGYWVIGLQEGVKYSVFQDGSSHTPFAPFIVPLSVIICPDRVGVFVDYEACTVSFFNITNHGFLIYKFSQCSFSKPVFPYLNPRKCTVPMTLCSPSS [rhesus TRIM5α, 332-344 = QARGTLYTFPSFT]”, the enrichment was determined as 1.55 ± 0.9.

Consider “MASGILLNVKEEVTCPICLELLTEPLSLHCGHSFCQACITANHKKSMLYKEGERSCPVCRISYQPENIQPNRHVANIVEKLREVKLSPEEGQKVDHCARHGEKLLLFCQEDSKVICWLCERSQEHRGHHTFLMEEVAQEYHVKLQTALEMLRQKQQEAEKLEADIREEKASWKIQIDYDKTNVSADFEQLREILDWEESNELQNLEKEEEDILKSLTKSETEMVQQTQYMRELISELEHRLQGSMMDLLQGVDGIIKRIENMTLKKPKTFHKNQRRVFRAPDLKGMLDMFRELTDARRYWVDVTLAPNNISHAVIAEDKRQVSSRNPQIMYQARGTLYTFPSFVNFNYCTGVLGSQSITSGKHYWEVDVSKKSAWILGVCAGFQSDAMYNIEQNENYQPKYGYWVIGLQEGVKYSVFQDGSSHTPFAPFIVPLSVIICPDRVGVFVDYEACTVSFFNITNHGFLIYKFSQCSFSKPVFPYLNPRKCTVPMTLCSPSS [rhesus TRIM5α, 332-344 = QARGTLYTFPSFV]”, for which the enrichment came to 1.08 ± 0.066. Turning to “MASGILLNVKEEVTCPICLELLTEPLSLHCGHSFCQACITANHKKSMLYKEGERSCPVCRISYQPENIQPNRHVANIVEKLREVKLSPEEGQKVDHCARHGEKLLLFCQEDSKVICWLCERSQEHRGHHTFLMEEVAQEYHVKLQTALEMLRQKQQEAEKLEADIREEKASWKIQIDYDKTNVSADFEQLREILDWEESNELQNLEKEEEDILKSLTKSETEMVQQTQYMRELISELEHRLQGSMMDLLQGVDGIIKRIENMTLKKPKTFHKNQRRVFRAPDLKGMLDMFRELTDARRYWVDVTLAPNNISHAVIAEDKRQVSSRNPQIMYQARGTLYTFPSLVNFNYCTGVLGSQSITSGKHYWEVDVSKKSAWILGVCAGFQSDAMYNIEQNENYQPKYGYWVIGLQEGVKYSVFQDGSSHTPFAPFIVPLSVIICPDRVGVFVDYEACTVSFFNITNHGFLIYKFSQCSFSKPVFPYLNPRKCTVPMTLCSPSS [rhesus TRIM5α, 332-344 = QARGTLYTFPSLV]”, the enrichment is 1.71 ± 0.61. With “MASGILLNVKEEVTCPICLELLTEPLSLHCGHSFCQACITANHKKSMLYKEGERSCPVCRISYQPENIQPNRHVANIVEKLREVKLSPEEGQKVDHCARHGEKLLLFCQEDSKVICWLCERSQEHRGHHTFLMEEVAQEYHVKLQTALEMLRQKQQEAEKLEADIREEKASWKIQIDYDKTNVSADFEQLREILDWEESNELQNLEKEEEDILKSLTKSETEMVQQTQYMRELISELEHRLQGSMMDLLQGVDGIIKRIENMTLKKPKTFHKNQRRVFRAPDLKGMLDMFRELTDARRYWVDVTLAPNNISHAVIAEDKRQVSSRNPQIMYQARGTLYTFPTFTNFNYCTGVLGSQSITSGKHYWEVDVSKKSAWILGVCAGFQSDAMYNIEQNENYQPKYGYWVIGLQEGVKYSVFQDGSSHTPFAPFIVPLSVIICPDRVGVFVDYEACTVSFFNITNHGFLIYKFSQCSFSKPVFPYLNPRKCTVPMTLCSPSS [rhesus TRIM5α, 332-344 = QARGTLYTFPTFT]”, the enrichment is 2.68 ± 0.63. In the case of “MASGILLNVKEEVTCPICLELLTEPLSLHCGHSFCQACITANHKKSMLYKEGERSCPVCRISYQPENIQPNRHVANIVEKLREVKLSPEEGQKVDHCARHGEKLLLFCQEDSKVICWLCERSQEHRGHHTFLMEEVAQEYHVKLQTALEMLRQKQQEAEKLEADIREEKASWKIQIDYDKTNVSADFEQLREILDWEESNELQNLEKEEEDILKSLTKSETEMVQQTQYMRELISELEHRLQGSMMDLLQGVDGIIKRIENMTLKKPKTFHKNQRRVFRAPDLKGMLDMFRELTDARRYWVDVTLAPNNISHAVIAEDKRQVSSRNPQIMYQARGTLYTFPTFVNFNYCTGVLGSQSITSGKHYWEVDVSKKSAWILGVCAGFQSDAMYNIEQNENYQPKYGYWVIGLQEGVKYSVFQDGSSHTPFAPFIVPLSVIICPDRVGVFVDYEACTVSFFNITNHGFLIYKFSQCSFSKPVFPYLNPRKCTVPMTLCSPSS [rhesus TRIM5α, 332-344 = QARGTLYTFPTFV]”, the enrichment worked out at 1.47 ± 1.2. The same measure for “MASGILLNVKEEVTCPICLELLTEPLSLHCGHSFCQACITANHKKSMLYKEGERSCPVCRISYQPENIQPNRHVANIVEKLREVKLSPEEGQKVDHCARHGEKLLLFCQEDSKVICWLCERSQEHRGHHTFLMEEVAQEYHVKLQTALEMLRQKQQEAEKLEADIREEKASWKIQIDYDKTNVSADFEQLREILDWEESNELQNLEKEEEDILKSLTKSETEMVQQTQYMRELISELEHRLQGSMMDLLQGVDGIIKRIENMTLKKPKTFHKNQRRVFRAPDLKGMLDMFRELTDARRYWVDVTLAPNNISHAVIAEDKRQVSSRNPQIMYQARGTLYTFPTLTNFNYCTGVLGSQSITSGKHYWEVDVSKKSAWILGVCAGFQSDAMYNIEQNENYQPKYGYWVIGLQEGVKYSVFQDGSSHTPFAPFIVPLSVIICPDRVGVFVDYEACTVSFFNITNHGFLIYKFSQCSFSKPVFPYLNPRKCTVPMTLCSPSS [rhesus TRIM5α, 332-344 = QARGTLYTFPTLT]”: 0.781 ± 0.076.

Regarding “MASGILLNVKEEVTCPICLELLTEPLSLHCGHSFCQACITANHKKSMLYKEGERSCPVCRISYQPENIQPNRHVANIVEKLREVKLSPEEGQKVDHCARHGEKLLLFCQEDSKVICWLCERSQEHRGHHTFLMEEVAQEYHVKLQTALEMLRQKQQEAEKLEADIREEKASWKIQIDYDKTNVSADFEQLREILDWEESNELQNLEKEEEDILKSLTKSETEMVQQTQYMRELISELEHRLQGSMMDLLQGVDGIIKRIENMTLKKPKTFHKNQRRVFRAPDLKGMLDMFRELTDARRYWVDVTLAPNNISHAVIAEDKRQVSSRNPQIMYQARGTLYTFPTLVNFNYCTGVLGSQSITSGKHYWEVDVSKKSAWILGVCAGFQSDAMYNIEQNENYQPKYGYWVIGLQEGVKYSVFQDGSSHTPFAPFIVPLSVIICPDRVGVFVDYEACTVSFFNITNHGFLIYKFSQCSFSKPVFPYLNPRKCTVPMTLCSPSS [rhesus TRIM5α, 332-344 = QARGTLYTFPTLV]”, the enrichment is 1.23 ± 0.73. For the sequence “MASGILLNVKEEVTCPICLELLTEPLSLHCGHSFCQACITANHKKSMLYKEGERSCPVCRISYQPENIQPNRHVANIVEKLREVKLSPEEGQKVDHCARHGEKLLLFCQEDSKVICWLCERSQEHRGHHTFLMEEVAQEYHVKLQTALEMLRQKQQEAEKLEADIREEKASWKIQIDYDKTNVSADFEQLREILDWEESNELQNLEKEEEDILKSLTKSETEMVQQTQYMRELISELEHRLQGSMMDLLQGVDGIIKRIENMTLKKPKTFHKNQRRVFRAPDLKGMLDMFRELTDARRYWVDVTLAPNNISHAVIAEDKRQVSSRNPQIMYQARGTLYTFQSFTNFNYCTGVLGSQSITSGKHYWEVDVSKKSAWILGVCAGFQSDAMYNIEQNENYQPKYGYWVIGLQEGVKYSVFQDGSSHTPFAPFIVPLSVIICPDRVGVFVDYEACTVSFFNITNHGFLIYKFSQCSFSKPVFPYLNPRKCTVPMTLCSPSS [rhesus TRIM5α, 332-344 = QARGTLYTFQSFT]”, the enrichment turned out to be 2 ± 0.64. For the sequence “MASGILLNVKEEVTCPICLELLTEPLSLHCGHSFCQACITANHKKSMLYKEGERSCPVCRISYQPENIQPNRHVANIVEKLREVKLSPEEGQKVDHCARHGEKLLLFCQEDSKVICWLCERSQEHRGHHTFLMEEVAQEYHVKLQTALEMLRQKQQEAEKLEADIREEKASWKIQIDYDKTNVSADFEQLREILDWEESNELQNLEKEEEDILKSLTKSETEMVQQTQYMRELISELEHRLQGSMMDLLQGVDGIIKRIENMTLKKPKTFHKNQRRVFRAPDLKGMLDMFRELTDARRYWVDVTLAPNNISHAVIAEDKRQVSSRNPQIMYQARGTLYTFQSFVNFNYCTGVLGSQSITSGKHYWEVDVSKKSAWILGVCAGFQSDAMYNIEQNENYQPKYGYWVIGLQEGVKYSVFQDGSSHTPFAPFIVPLSVIICPDRVGVFVDYEACTVSFFNITNHGFLIYKFSQCSFSKPVFPYLNPRKCTVPMTLCSPSS [rhesus TRIM5α, 332-344 = QARGTLYTFQSFV]”, the enrichment is 0.521 ± 0.28. As for “MASGILLNVKEEVTCPICLELLTEPLSLHCGHSFCQACITANHKKSMLYKEGERSCPVCRISYQPENIQPNRHVANIVEKLREVKLSPEEGQKVDHCARHGEKLLLFCQEDSKVICWLCERSQEHRGHHTFLMEEVAQEYHVKLQTALEMLRQKQQEAEKLEADIREEKASWKIQIDYDKTNVSADFEQLREILDWEESNELQNLEKEEEDILKSLTKSETEMVQQTQYMRELISELEHRLQGSMMDLLQGVDGIIKRIENMTLKKPKTFHKNQRRVFRAPDLKGMLDMFRELTDARRYWVDVTLAPNNISHAVIAEDKRQVSSRNPQIMYQARGTLYTFQSLTNFNYCTGVLGSQSITSGKHYWEVDVSKKSAWILGVCAGFQSDAMYNIEQNENYQPKYGYWVIGLQEGVKYSVFQDGSSHTPFAPFIVPLSVIICPDRVGVFVDYEACTVSFFNITNHGFLIYKFSQCSFSKPVFPYLNPRKCTVPMTLCSPSS [rhesus TRIM5α, 332-344 = QARGTLYTFQSLT]”, the figure is 1.26 ± 0.18.
